The list shows a part of the results.
Tests used:
Assay in all cases: glycan array binding signal (z-score within array); higher = stronger binding
Conditions in all cases: glycan notation: IUPAC condensed, linker removed
Gal(a1-2)Gal = target: Gal(a1-2)Gal
How it was run: (§1)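 Columns mapping to the same glycan were averaged after glycan names were converted to IUPAC-condensed notation. The data come from 3228 arrays in the Consortium for Functional Glycomics database, limited to those with an available protein sequence. Binding is reported as a within-array Z-score averaged across arrays of one protein sequence and across linkers.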

Gal(a1-3)Gal = target: Gal(a1-3)Gal
How it was run: as §1

Gal(a1-3)Gal(b1-3)GlcNAc = target: Gal(a1-3)Gal(b1-3)GlcNAc
How it was run: as §1

Gal(a1-3)Gal(b1-4)Glc = target: Gal(a1-3)Gal(b1-4)Glc
How it was run: as §1

Gal(a1-3)Gal(b1-4)GlcNAc = target: Gal(a1-3)Gal(b1-4)GlcNAc
How it was run: as §1

[1] = target: Gal(a1-3)Gal(b1-4)[Fuc(a1-3)]GlcNAc
How it was run: as §1

Gal(a1-3)GalNAc = target: Gal(a1-3)GalNAc
How it was run: as §1

[2] = target: Gal(a1-3)[Gal(a1-4)]Gal(b1-4)GlcNAc
How it was run: as §1

Gal(a1-4)Gal(b1-4)Glc = target: Gal(a1-4)Gal(b1-4)Glc
How it was run: as §1

Gal(a1-4)Gal(b1-4)GlcNAc = target: Gal(a1-4)Gal(b1-4)GlcNAc
How it was run: as §1

Gal(a1-4)GlcNAc = target: Gal(a1-4)GlcNAc
How it was run: as §1

Gal(a1-6)Glc = target: Gal(a1-6)Glc
How it was run: as §1

Gal(b1-2)Gal = target: Gal(b1-2)Gal
How it was run: as §1

Gal(b1-3)Gal = target: Gal(b1-3)Gal
How it was run: as §1

Gal(b1-3)GalNAc = target: Gal(b1-3)GalNAc
How it was run: as §1

[3] = target: Gal(b1-3)GalNAc(b1-3)Gal(a1-4)Gal(b1-4)Glc
How it was run: as §1

[4] = target: Gal(b1-3)GalNAc(b1-4)Gal(b1-4)Glc
How it was run: as §1

[5] = target: Gal(b1-3)GalNAc(b1-4)[Neu5Ac(a2-3)]Gal(b1-4)Glc
How it was run: as §1

Gal(b1-3)GlcNAc = target: Gal(b1-3)GlcNAc
How it was run: as §1

[6] = target: Gal(b1-3)GlcNAc(b1-3)Gal(b1-4)Glc
How it was run: as §1

[7] = target: Gal(b1-3)GlcNAc(b1-3)Gal(b1-4)GlcNAc
How it was run: as §1

[8] = target: Gal(b1-3)[Fuc(a1-4)]GlcNAc
How it was run: as §1

[9] = target: Gal(b1-3)[Fuc(a1-4)]GlcNAc(b1-3)Gal(b1-4)GlcNAc
How it was run: as §1

[10] = target: Gal(b1-3)[Fuc(a1-4)]GlcNAc(b1-3)Gal(b1-4)[Fuc(a1-3)]GlcNAc
How it was run: as §1

[11] = target: Gal(b1-3)[GlcNAc(b1-6)]GalNAc
How it was run: as §1

[12] = target: Gal(b1-3)[Neu5Ac(a2-6)]GalNAc
How it was run: as §1

[13] = target: Gal(b1-3)[Neu5Ac(a2-6)]GlcNAc(b1-6)Gal(b1-4)Glc
How it was run: as §1

[14] = target: Gal(b1-3)[Neu5Ac(b2-6)]GalNAc
How it was run: as §1

[15] = target: Gal(b1-4)GalNAc(a1-3)[Fuc(a1-2)]Gal(b1-4)GlcNAc
How it was run: as §1

[16] = target: Gal(b1-4)GalNAc(b1-3)[Fuc(a1-2)]Gal(b1-4)GlcNAc
How it was run: as §1

Gal(b1-4)Glc = target: Gal(b1-4)Glc
How it was run: as §1

Gal(b1-4)Glc6S = target: Gal(b1-4)Glc6S
How it was run: as §1

Gal(b1-4)GlcNAc = target: Gal(b1-4)GlcNAc
How it was run: as §1

[17] = target: Gal(b1-4)GlcNAc(b1-2)Man(a1-3)[Gal(b1-4)GlcNAc(b1-2)Man(a1-6)]Man(b1-4)GlcNAc(b1-4)GlcNAc
How it was run: as §1

[18] = target: Gal(b1-4)GlcNAc(b1-3)Gal(b1-4)Glc
How it was run: as §1

[19] = target: Gal(b1-4)GlcNAc(b1-3)Gal(b1-4)GlcNAc
How it was run: as §1

[20] = target: Gal(b1-4)GlcNAc(b1-3)Gal(b1-4)GlcNAc(b1-3)Gal(b1-4)GlcNAc
How it was run: as §1

[21] = target: Gal(b1-4)GlcNAc(b1-3)Gal(b1-4)[Fuc(a1-3)]GlcNAc(b1-3)Gal(b1-4)[Fuc(a1-3)]GlcNAc
How it was run: as §1

B1: F17fG (Escherichia coli), Q9RH91 (protein)
chain: MTNFYKVFLAVFILVCCNISHAAVSFIGSTENDVGPSQGSYSSTHAMDNLPFVYNTGHNIGYQNANVWRISGGFCVGLDGKVDLPVVGSLDGQSIYGLTEEVGLLIWMGDTNYSRGTAMSGNSWENVFSGWCVGNYVSTQGLSVHVRPVILKRNSSAQYSVQKTSIGSIRMRPYNGSSAGSVQTTVNFSLNPFTLNDTVTSCRLLTPSAVNVSLAAISAGQLPSSGDEVVAGTTSLKLQCDAGVTVWATLTDATTPSNRSDILTLTGASTATGVGLRIYKNTDSTPLKFGPDSPVKGNENQWQLSTGTETSPSVRLYVKYVNTGEGINPGTVNGISTFTFSYQ
glycan array binding signal (z-score) (Gal(a1-2)Gal): -0.332 | glycan array binding signal (z-score) (Gal(a1-3)Gal): -0.383 | glycan array binding signal (z-score) (Gal(a1-3)Gal(b1-3)GlcNAc): -0.368 | glycan array binding signal (z-score) (Gal(a1-3)Gal(b1-4)Glc): -0.308 | glycan array binding signal (z-score) (Gal(a1-3)Gal(b1-4)GlcNAc): -0.33 | glycan array binding signal (z-score) [1]: -0.364 | glycan array binding signal (z-score) (Gal(a1-3)GalNAc): -0.39 | glycan array binding signal (z-score) [2]: -0.356 | glycan array binding signal (z-score) (Gal(a1-4)Gal(b1-4)Glc): -0.234 | glycan array binding signal (z-score) (Gal(a1-4)Gal(b1-4)GlcNAc): -0.382 | glycan array binding signal (z-score) (Gal(a1-4)GlcNAc): -0.3 | glycan array binding signal (z-score) (Gal(a1-6)Glc): -0.282 | glycan array binding signal (z-score) (Gal(b1-2)Gal): -0.248 | glycan array binding signal (z-score) (Gal(b1-3)Gal): -0.286 | glycan array binding signal (z-score) (Gal(b1-3)GalNAc): -0.283 | glycan array binding signal (z-score) [3]: -0.343 | glycan array binding signal (z-score) [4]: -0.378 | glycan array binding signal (z-score) [5]: -0.355 | glycan array binding signal (z-score) (Gal(b1-3)GlcNAc): -0.141 | glycan array binding signal (z-score) [6]: -0.272 | glycan array binding signal (z-score) [7]: -0.3 | glycan array binding signal (z-score) [8]: -0.382 | glycan array binding signal (z-score) [9]: -0.213 | glycan array binding signal (z-score) [10]: -0.353 | glycan array binding signal (z-score) [11]: 0.211 | glycan array binding signal (z-score) [12]: -0.273 | glycan array binding signal (z-score) [13]: -0.2 | glycan array binding signal (z-score) [14]: -0.291 | glycan array binding signal (z-score) [15]: -0.363 | glycan array binding signal (z-score) [16]: -0.375 | glycan array binding signal (z-score) (Gal(b1-4)Glc): -0.347 | glycan array binding signal (z-score) (Gal(b1-4)Glc6S): -0.248 | glycan array binding signal (z-score) (Gal(b1-4)GlcNAc): -0.266 | glycan array binding signal (z-score) [17]: -0.371 | glycan array binding signal (z-score) [18]: -0.313 | glycan array binding signal (z-score) [19]: -0.365 | glycan array binding signal (z-score) [20]: -0.371 | glycan array binding signal (z-score) [21]: -0.157

— the supplement of paper PMC8728848
